This is an account of results in patent publication US20250270341A1 (Alector, published 2025).

Assay [1] addresses T1, human CD98hc endogenously expressed on HCMEC/D3 cells (human).
T1 construct: human brain endothelial cell line
T1 chain: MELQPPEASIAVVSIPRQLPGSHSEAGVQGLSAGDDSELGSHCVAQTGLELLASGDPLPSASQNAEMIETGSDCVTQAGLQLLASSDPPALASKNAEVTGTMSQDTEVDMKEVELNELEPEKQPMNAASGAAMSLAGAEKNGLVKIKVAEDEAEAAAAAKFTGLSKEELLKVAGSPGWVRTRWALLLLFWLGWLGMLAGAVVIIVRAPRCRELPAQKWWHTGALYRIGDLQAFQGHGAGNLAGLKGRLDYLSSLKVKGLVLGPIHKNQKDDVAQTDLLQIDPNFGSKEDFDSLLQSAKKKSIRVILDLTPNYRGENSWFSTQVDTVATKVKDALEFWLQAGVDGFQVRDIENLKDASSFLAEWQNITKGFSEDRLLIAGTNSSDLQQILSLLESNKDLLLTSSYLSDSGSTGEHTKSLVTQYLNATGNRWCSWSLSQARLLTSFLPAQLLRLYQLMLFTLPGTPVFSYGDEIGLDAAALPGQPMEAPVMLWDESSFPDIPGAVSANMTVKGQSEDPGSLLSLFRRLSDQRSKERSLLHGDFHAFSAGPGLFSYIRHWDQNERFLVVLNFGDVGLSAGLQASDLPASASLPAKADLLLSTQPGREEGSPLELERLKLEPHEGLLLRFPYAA
In words: FACS.

The target in assay [2] is T2, Full length human CD98hc on CHO cells (human).
T2 construct: CHO cells stably overexpressing it; also called CHO-human CD98hc; CHO-huCD98hc
T2 chain: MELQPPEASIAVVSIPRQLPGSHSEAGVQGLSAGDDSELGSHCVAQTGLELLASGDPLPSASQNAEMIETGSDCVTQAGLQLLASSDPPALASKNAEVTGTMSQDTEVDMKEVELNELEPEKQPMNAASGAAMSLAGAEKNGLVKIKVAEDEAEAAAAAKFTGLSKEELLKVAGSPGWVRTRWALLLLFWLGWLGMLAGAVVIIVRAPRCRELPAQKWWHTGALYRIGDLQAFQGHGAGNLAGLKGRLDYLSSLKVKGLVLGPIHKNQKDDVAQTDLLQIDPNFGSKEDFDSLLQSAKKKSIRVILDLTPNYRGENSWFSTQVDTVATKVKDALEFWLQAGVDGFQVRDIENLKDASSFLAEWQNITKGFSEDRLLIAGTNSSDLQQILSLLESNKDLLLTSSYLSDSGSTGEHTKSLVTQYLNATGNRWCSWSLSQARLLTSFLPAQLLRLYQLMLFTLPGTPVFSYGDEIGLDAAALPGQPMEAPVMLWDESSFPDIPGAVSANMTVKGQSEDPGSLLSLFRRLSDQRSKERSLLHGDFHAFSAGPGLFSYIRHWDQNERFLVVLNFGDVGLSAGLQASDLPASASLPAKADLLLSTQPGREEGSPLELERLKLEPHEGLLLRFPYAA
The assay is described as follows: FACS.

B1: CD98hc.05.188 (2+1 bispecific antibody) (bispecific antibody)
heavy 1: EVRLLESGGGLVQPGGSLRLSCAASGFTFSNYAMGWVRQAPGKGLEWVSAISGSGGSTYYADSVKGRFTTSRDDSKNALYLQMNSLRAEDTAVYYCARGGPGWYAADVWGQGTTVTVSSASTKGPSVFPLAPSSKSTSGGTAALGCLVKDYFPEPVTVSWNSGALTSGVHTFPAVLQSSGLYSLSSVVTVPSSSLGTQTYICNVNHKPSNTKVDKKV[here human IgG1 Fc with changes without letters]GGGGSGGGGSGGGGSQVQLQQPGAELVRPGASVKLSCKASGYTFTSYWMSWVKQRPGQGLEWIGFITPSDSEALYSQMFKDKATLTVDKSSSTAHLQLSSLTSEDSAVYYCARWSYGNFAAMDYWGQGTSVTVSSGGSEGKSSGSGSESKSTGGSDIVMTQSPSSLAMSVGQKVTMSCKSSQSLLNSNNQKNYLAWYQQKPGQSPKLLVYFSSTRESGVPDRFIGSGSGTDFTLTITSVQAEDLADYFCQQHYSTPLTFGAGTKLEIK
heavy 2: EVRLLESGGGLVQPGGSLRLSCAASGFTFSNYAMGWVRQAPGKGLEWVSAISGSGGSTYYADSVKGRFTTSRDDSKNALYLQMNSLRAEDTAVYYCARGGPGWYAADVWGQGTTVTVSS[here human IgG1 constant region with changes without letters]
light: DIQMTQSPSSLSASVGDRVTITCRASQSISSYLNWYQQKPGKAPKLLIYAASSLQSGVPSRFSGSGSGTDFTLTISSLQPEDFATYYCQQADLPAFAFGGGTKVEIKRTVAAPSVFIFPPSDEQLKSGTASVVCLLNNFYPREAKVQWKVDNALQSGNSQESVTEQDSKDSTYSLSSTLTLSKADYEKHKVYACEVTHQGLSSPVTKSFNRGEC
Consider B1, for which the “MFI ratio HCMEC/2nd ab only” value in assay [1] was determined as 260. Besides, the “MFI ratio CHO huCD98/CHO parental” value in assay [2] amounted to 16.

B2: CD98hc.05.226 (2+1 bispecific antibody) (bispecific antibody)
heavy 1: EVRLLESGGGLVQPGGSLRLSCAASGFTFSNYAMGWVRQAPGKGLEWVSAISGSGGSTYYADSVKGRFTTSRDDSKNALYLQMNSLRAEDTAVYYCARGGPGWYAADVWGQGTTVTVSSASTKGPSVFPLAPSSKSTSGGTAALGCLVKDYFPEPVTVSWNSGALTSGVHTFPAVLQSSGLYSLSSVVTVPSSSLGTQTYICNVNHKPSNTKVDKKV[here human IgG1 Fc with changes without letters]GGGGSGGGGSGGGGSEVQLVESGGGLGKPGGSLKLSCAASGFAFSSYDMSWVRQTPEKRLDWVAYISSGGGGTYYPDTVKGRFTISRDNAKNTLYLQMSSLKSEDTAIYYCARHVGVRPWFGYWGQGTLVTVSSGGSEGKSSGSGSESKSTGGSDIVMSQSPSSLAVSVGEKITMTCKSSQSLLYSGSQKNYLAWYQQKPGQSPKLLIYWASTRESGVPDRFTGSGSGTDFTLTISSVKAEDLAVYYCQQYSYYPPTFGAGTKLEIK
heavy 2: EVRLLESGGGLVQPGGSLRLSCAASGFTFSNYAMGWVRQAPGKGLEWVSAISGSGGSTYYADSVKGRFTTSRDDSKNALYLQMNSLRAEDTAVYYCARGGPGWYAADVWGQGTTVTVSS[here human IgG1 constant region with changes without letters]
light: DIQMTQSPSSLSASVGDRVTITCRASQSISSYLNWYQQKPGKAPKLLIYAASSLQSGVPSRFSGSGSGTDFTLTISSLQPEDFATYYCQQADLPAFAFGGGTKVEIKRTVAAPSVFIFPPSDEQLKSGTASVVCLLNNFYPREAKVQWKVDNALQSGNSQESVTEQDSKDSTYSLSSTLTLSKADYEKHKVYACEVTHQGLSSPVTKSFNRGEC
B2: the “MFI ratio HCMEC/2nd ab only” value in assay [1] is 490. Further, in assay [2], the “MFI ratio CHO huCD98/CHO parental” value stood at 24.

B3: CD98hc.05.193 (2+1 bispecific antibody) (bispecific antibody)
heavy 1: EVRLLESGGGLVQPGGSLRLSCAASGFTFSNYAMGWVRQAPGKGLEWVSAISGSGGSTYYADSVKGRFTTSRDDSKNALYLQMNSLRAEDTAVYYCARGGPGWYAADVWGQGTTVTVSSASTKGPSVFPLAPSSKSTSGGTAALGCLVKDYFPEPVTVSWNSGALTSGVHTFPAVLQSSGLYSLSSVVTVPSSSLGTQTYICNVNHKPSNTKVDKKV[here human IgG1 Fc with changes without letters]GGGGSGGGGSGGGGSEVQLVESGGGLVQPGGSLKVSCTTSGFTFSDFDMSWIRQTPEKRLEWVAYISSGGGSTYFPDTVKGRFTISRDNAKSTLYLQMSSLKSEDTAMYYCARHVGVRPWFDYWGQGTLVTVSSGGSEGKSSGSGSESKSTGGSDIVMSQSPSSLAVSVGEKVTMTCKSSQSLLYSSNQKNYLAWYQQKPGQSPKLLIYWASTRESGVPDRFTGSGSGTDFTLTISSVKAEDLALYYCQQYHYYPPTFGAGTKLEIK
heavy 2: EVRLLESGGGLVQPGGSLRLSCAASGFTFSNYAMGWVRQAPGKGLEWVSAISGSGGSTYYADSVKGRFTTSRDDSKNALYLQMNSLRAEDTAVYYCARGGPGWYAADVWGQGTTVTVSS[here human IgG1 constant region with changes without letters]
light: DIQMTQSPSSLSASVGDRVTITCRASQSISSYLNWYQQKPGKAPKLLIYAASSLQSGVPSRFSGSGSGTDFTLTISSLQPEDFATYYCQQADLPAFAFGGGTKVEIKRTVAAPSVFIFPPSDEQLKSGTASVVCLLNNFYPREAKVQWKVDNALQSGNSQESVTEQDSKDSTYSLSSTLTLSKADYEKHKVYACEVTHQGLSSPVTKSFNRGEC
Turning to B3, the “MFI ratio HCMEC/2nd ab only” value in assay [1] stood at 526. Also, in assay [2], the “MFI ratio CHO huCD98/CHO parental” value came out at 23.

B4: CD98hc.05.207 (2+1 bispecific antibody) (bispecific antibody)
heavy 1: EVRLLESGGGLVQPGGSLRLSCAASGFTFSNYAMGWVRQAPGKGLEWVSAISGSGGSTYYADSVKGRFTTSRDDSKNALYLQMNSLRAEDTAVYYCARGGPGWYAADVWGQGTTVTVSSASTKGPSVFPLAPSSKSTSGGTAALGCLVKDYFPEPVTVSWNSGALTSGVHTFPAVLQSSGLYSLSSVVTVPSSSLGTQTYICNVNHKPSNTKVDKKV[here human IgG1 Fc with changes without letters]GGGGSGGGGSGGGGSEVQLVESGGGLVKPGGSLKISCAASGFAFSSYDMSWVRQTPEKRLEWVAYISSAGGSTYFPGTVKGRFTISRDNAKNTLYLQMRSLKSEDTAMYYCARHENGHYPFFDFWGQGTTLTVSSGGSEGKSSGSGSESKSTGGSDIVMSQSPSSLAVSVGEKVTLSCKSSQSLFYSGNQKTYLAWYQQKPGQSPKLLIYWTSTRESGVPDRFTGSGSGTDFTLTISSVKAEDLAVYFCQQYYTYPPTFGAGTKLEIK
heavy 2: EVRLLESGGGLVQPGGSLRLSCAASGFTFSNYAMGWVRQAPGKGLEWVSAISGSGGSTYYADSVKGRFTTSRDDSKNALYLQMNSLRAEDTAVYYCARGGPGWYAADVWGQGTTVTVSS[here human IgG1 constant region with changes without letters]
light: DIQMTQSPSSLSASVGDRVTITCRASQSISSYLNWYQQKPGKAPKLLIYAASSLQSGVPSRFSGSGSGTDFTLTISSLQPEDFATYYCQQADLPAFAFGGGTKVEIKRTVAAPSVFIFPPSDEQLKSGTASVVCLLNNFYPREAKVQWKVDNALQSGNSQESVTEQDSKDSTYSLSSTLTLSKADYEKHKVYACEVTHQGLSSPVTKSFNRGEC
As to B4, in assay [1], the “MFI ratio HCMEC/2nd ab only” value was 215. Besides, the “MFI ratio CHO huCD98/CHO parental” value in assay [2] amounted to 17.
